Data reported in article PMC8064142.
These are yes or no findings as the source states them, for the method shown. In cells and extracts the contact can be indirect. Some binding calls cover weakened binding; strength is not graded here. For some assays here: Sequences can lack the tags named with a protein.

Protein sequences, listed by entry. Tags and fused reporters are not part of them.
UniProt Q66K64: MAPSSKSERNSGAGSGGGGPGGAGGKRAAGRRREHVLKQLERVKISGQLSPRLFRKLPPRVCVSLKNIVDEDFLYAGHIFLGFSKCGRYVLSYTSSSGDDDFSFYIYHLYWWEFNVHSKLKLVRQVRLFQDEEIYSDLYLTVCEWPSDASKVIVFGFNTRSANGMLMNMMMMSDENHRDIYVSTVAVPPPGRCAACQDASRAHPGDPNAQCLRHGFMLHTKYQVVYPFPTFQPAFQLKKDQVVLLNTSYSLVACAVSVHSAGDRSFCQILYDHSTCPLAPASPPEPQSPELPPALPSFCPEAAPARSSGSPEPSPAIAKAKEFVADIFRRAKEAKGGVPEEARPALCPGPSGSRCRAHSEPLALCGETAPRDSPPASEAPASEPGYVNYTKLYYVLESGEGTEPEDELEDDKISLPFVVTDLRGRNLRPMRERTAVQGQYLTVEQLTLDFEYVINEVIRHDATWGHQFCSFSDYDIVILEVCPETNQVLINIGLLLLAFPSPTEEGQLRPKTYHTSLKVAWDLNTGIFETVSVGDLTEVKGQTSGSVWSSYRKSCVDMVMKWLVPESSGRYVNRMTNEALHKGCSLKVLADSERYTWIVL

T1: endogenous ZEB1 (SMMC-7721 cells) (human (endogenous in SMMC-7721)) (UniProt P37275)
T1 sequence: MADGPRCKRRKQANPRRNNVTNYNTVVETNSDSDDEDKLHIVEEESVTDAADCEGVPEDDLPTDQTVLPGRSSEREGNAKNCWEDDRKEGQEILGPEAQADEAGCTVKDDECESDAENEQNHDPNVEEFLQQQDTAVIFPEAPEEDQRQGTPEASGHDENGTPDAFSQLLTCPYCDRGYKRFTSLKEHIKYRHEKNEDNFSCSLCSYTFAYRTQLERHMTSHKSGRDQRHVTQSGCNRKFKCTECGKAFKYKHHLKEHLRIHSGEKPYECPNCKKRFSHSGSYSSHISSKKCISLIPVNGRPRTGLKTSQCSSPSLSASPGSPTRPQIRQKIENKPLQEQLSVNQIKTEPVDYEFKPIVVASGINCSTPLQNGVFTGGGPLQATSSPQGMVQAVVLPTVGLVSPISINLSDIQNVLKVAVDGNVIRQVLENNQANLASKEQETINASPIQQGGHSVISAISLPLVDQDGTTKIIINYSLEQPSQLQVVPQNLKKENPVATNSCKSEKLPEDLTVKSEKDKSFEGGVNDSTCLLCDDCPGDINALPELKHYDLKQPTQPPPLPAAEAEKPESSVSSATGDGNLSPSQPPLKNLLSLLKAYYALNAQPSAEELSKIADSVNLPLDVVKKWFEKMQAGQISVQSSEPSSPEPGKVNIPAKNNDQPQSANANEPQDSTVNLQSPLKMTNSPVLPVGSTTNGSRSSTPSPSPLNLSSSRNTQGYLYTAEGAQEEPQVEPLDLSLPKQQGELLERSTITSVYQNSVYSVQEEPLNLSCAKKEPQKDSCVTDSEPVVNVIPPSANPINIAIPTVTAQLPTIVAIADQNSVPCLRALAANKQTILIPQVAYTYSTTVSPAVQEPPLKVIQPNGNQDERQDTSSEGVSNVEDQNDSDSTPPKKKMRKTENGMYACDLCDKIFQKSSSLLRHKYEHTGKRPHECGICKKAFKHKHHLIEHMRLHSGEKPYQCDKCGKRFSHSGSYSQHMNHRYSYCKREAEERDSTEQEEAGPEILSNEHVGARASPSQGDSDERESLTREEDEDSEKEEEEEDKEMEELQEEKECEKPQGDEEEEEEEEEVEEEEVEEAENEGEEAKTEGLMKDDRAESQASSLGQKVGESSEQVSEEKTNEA

T2: Flag-ZEB1 (UniProt P37275)
T2 sequence: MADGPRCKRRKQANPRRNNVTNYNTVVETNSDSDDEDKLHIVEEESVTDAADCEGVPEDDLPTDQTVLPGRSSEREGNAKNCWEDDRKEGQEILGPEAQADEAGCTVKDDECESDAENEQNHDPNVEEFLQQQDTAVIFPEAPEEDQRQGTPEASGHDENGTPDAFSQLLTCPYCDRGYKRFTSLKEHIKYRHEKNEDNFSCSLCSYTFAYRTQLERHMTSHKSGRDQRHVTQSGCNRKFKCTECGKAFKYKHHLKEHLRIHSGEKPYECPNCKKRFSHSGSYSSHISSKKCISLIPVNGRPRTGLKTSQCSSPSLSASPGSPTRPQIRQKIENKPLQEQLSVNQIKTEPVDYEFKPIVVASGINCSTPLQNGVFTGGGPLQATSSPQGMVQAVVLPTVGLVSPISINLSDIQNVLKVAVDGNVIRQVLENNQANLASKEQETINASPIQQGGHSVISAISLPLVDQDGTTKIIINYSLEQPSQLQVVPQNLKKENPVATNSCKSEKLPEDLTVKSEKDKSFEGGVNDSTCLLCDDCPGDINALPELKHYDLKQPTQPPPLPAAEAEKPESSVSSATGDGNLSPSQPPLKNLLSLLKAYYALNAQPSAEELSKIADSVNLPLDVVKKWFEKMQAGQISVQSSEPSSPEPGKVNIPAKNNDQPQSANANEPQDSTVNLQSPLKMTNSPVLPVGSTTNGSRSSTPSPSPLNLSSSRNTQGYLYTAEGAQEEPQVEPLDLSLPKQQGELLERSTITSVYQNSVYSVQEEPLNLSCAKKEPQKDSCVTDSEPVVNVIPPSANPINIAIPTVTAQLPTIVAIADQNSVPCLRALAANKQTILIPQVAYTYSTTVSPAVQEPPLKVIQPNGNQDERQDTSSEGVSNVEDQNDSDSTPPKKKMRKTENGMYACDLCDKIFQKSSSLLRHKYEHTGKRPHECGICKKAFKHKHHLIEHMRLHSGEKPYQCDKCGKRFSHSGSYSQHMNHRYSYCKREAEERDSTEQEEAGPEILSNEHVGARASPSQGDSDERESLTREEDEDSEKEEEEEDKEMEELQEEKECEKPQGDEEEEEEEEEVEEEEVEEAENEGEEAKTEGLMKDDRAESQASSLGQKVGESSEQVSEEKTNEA


Key:
[1] = target: T1, endogenous ZEB1 (SMMC-7721 cells) (human (endogenous in SMMC-7721)); assay: co-IP; endogenous proteins of SMMC-7721 cells, 10 μM MG132 for 6 h; RIPA buffer; anti-ZEB1 or anti-DCAF15 antibody or IgG (mock IP), protein A/G beads; Western blot
Flag-ZEB1 = target: T2, Flag-ZEB1; assay: co-IP; Flag- and Myc-tagged proteins co-expressed in HEK293T cells; lysed in NP40 buffer; anti-Flag M2 agarose beads at 4°C overnight; eluted with Flag peptide/BC100; Western blot
Flag-DCAF15 (human) = Flag-DCAF15 (human) (UniProt Q66K64); assay: as above

| Molecule | binding (Flag-DCAF15 (human)) | further results |
| --- | --- | --- |
| endogenous DCAF15 (from UniProt Q66K64 1-600) | – | binding [1]: binds |
| Myc-DCAF15 (from UniProt Q66K64 1-600) | – | binding (Flag-ZEB1): binds |
| Myc-ZEB1-Δ3 (amino acids 341-781) (domain or fragment, UniProt P37275 341-781) LSVNQIKTEPVDYEFKPIVVASGINCSTPLQNGVFTGGGPLQATSSPQGMVQAVVLPTVGLVSPISINLSDIQNVLKVAVDGNVIRQVLENNQANLASKEQETINASPIQQGGHSVISAISLPLVDQDGTTKIIINYSLEQPSQLQVVPQNLKKENPVATNSCKSEKLPEDLTVKSEKDKSFEGGVNDSTCLLCDDCPGDINALPELKHYDLKQPTQPPPLPAAEAEKPESSVSSATGDGNLSPSQPPLKNLLSLLKAYYALNAQPSAEELSKIADSVNLPLDVVKKWFEKMQAGQISVQSSEPSSPEPGKVNIPAKNNDQPQSANANEPQDSTVNLQSPLKMTNSPVLPVGSTTNGSRSSTPSPSPLNLSSSRNTQGYLYTAEGAQEEPQVEPLDLSLPKQQGELLERSTITSVYQNSVYSVQEEPLNLSCAKKEPQKDS | no binding | – |
| Myc-ZEB1-Δ2 (amino acids 1-781) (domain or fragment, UniProt P37275 1-781) MADGPRCKRRKQANPRRNNVTNYNTVVETNSDSDDEDKLHIVEEESVTDAADCEGVPEDDLPTDQTVLPGRSSEREGNAKNCWEDDRKEGQEILGPEAQADEAGCTVKDDECESDAENEQNHDPNVEEFLQQQDTAVIFPEAPEEDQRQGTPEASGHDENGTPDAFSQLLTCPYCDRGYKRFTSLKEHIKYRHEKNEDNFSCSLCSYTFAYRTQLERHMTSHKSGRDQRHVTQSGCNRKFKCTECGKAFKYKHHLKEHLRIHSGEKPYECPNCKKRFSHSGSYSSHISSKKCISLIPVNGRPRTGLKTSQCSSPSLSASPGSPTRPQIRQKIENKPLQEQLSVNQIKTEPVDYEFKPIVVASGINCSTPLQNGVFTGGGPLQATSSPQGMVQAVVLPTVGLVSPISINLSDIQNVLKVAVDGNVIRQVLENNQANLASKEQETINASPIQQGGHSVISAISLPLVDQDGTTKIIINYSLEQPSQLQVVPQNLKKENPVATNSCKSEKLPEDLTVKSEKDKSFEGGVNDSTCLLCDDCPGDINALPELKHYDLKQPTQPPPLPAAEAEKPESSVSSATGDGNLSPSQPPLKNLLSLLKAYYALNAQPSAEELSKIADSVNLPLDVVKKWFEKMQAGQISVQSSEPSSPEPGKVNIPAKNNDQPQSANANEPQDSTVNLQSPLKMTNSPVLPVGSTTNGSRSSTPSPSPLNLSSSRNTQGYLYTAEGAQEEPQVEPLDLSLPKQQGELLERSTITSVYQNSVYSVQEEPLNLSCAKKEPQKDS | binds | – |
| Myc-ZEB1-Δ5 (amino acids 782-1124) (domain or fragment, UniProt P37275 782-1124) CVTDSEPVVNVIPPSANPINIAIPTVTAQLPTIVAIADQNSVPCLRALAANKQTILIPQVAYTYSTTVSPAVQEPPLKVIQPNGNQDERQDTSSEGVSNVEDQNDSDSTPPKKKMRKTENGMYACDLCDKIFQKSSSLLRHKYEHTGKRPHECGICKKAFKHKHHLIEHMRLHSGEKPYQCDKCGKRFSHSGSYSQHMNHRYSYCKREAEERDSTEQEEAGPEILSNEHVGARASPSQGDSDERESLTREEDEDSEKEEEEEDKEMEELQEEKECEKPQGDEEEEEEEEEVEEEEVEEAENEGEEAKTEGLMKDDRAESQASSLGQKVGESSEQVSEEKTNEA | no binding | – |
| Myc-ZEB1-Δ4 (amino acids 341-1,124) (domain or fragment, UniProt P37275 341-1124) LSVNQIKTEPVDYEFKPIVVASGINCSTPLQNGVFTGGGPLQATSSPQGMVQAVVLPTVGLVSPISINLSDIQNVLKVAVDGNVIRQVLENNQANLASKEQETINASPIQQGGHSVISAISLPLVDQDGTTKIIINYSLEQPSQLQVVPQNLKKENPVATNSCKSEKLPEDLTVKSEKDKSFEGGVNDSTCLLCDDCPGDINALPELKHYDLKQPTQPPPLPAAEAEKPESSVSSATGDGNLSPSQPPLKNLLSLLKAYYALNAQPSAEELSKIADSVNLPLDVVKKWFEKMQAGQISVQSSEPSSPEPGKVNIPAKNNDQPQSANANEPQDSTVNLQSPLKMTNSPVLPVGSTTNGSRSSTPSPSPLNLSSSRNTQGYLYTAEGAQEEPQVEPLDLSLPKQQGELLERSTITSVYQNSVYSVQEEPLNLSCAKKEPQKDSCVTDSEPVVNVIPPSANPINIAIPTVTAQLPTIVAIADQNSVPCLRALAANKQTILIPQVAYTYSTTVSPAVQEPPLKVIQPNGNQDERQDTSSEGVSNVEDQNDSDSTPPKKKMRKTENGMYACDLCDKIFQKSSSLLRHKYEHTGKRPHECGICKKAFKHKHHLIEHMRLHSGEKPYQCDKCGKRFSHSGSYSQHMNHRYSYCKREAEERDSTEQEEAGPEILSNEHVGARASPSQGDSDERESLTREEDEDSEKEEEEEDKEMEELQEEKECEKPQGDEEEEEEEEEVEEEEVEEAENEGEEAKTEGLMKDDRAESQASSLGQKVGESSEQVSEEKTNEA | no binding | – |

The next lines start with results.

| binding (Flag-DCAF15 (human)) | Molecule | further results |
| --- | --- | --- |
| binds | Myc-ZEB1 (full-length) (protein, UniProt P37275 1-1124) MADGPRCKRRKQANPRRNNVTNYNTVVETNSDSDDEDKLHIVEEESVTDAADCEGVPEDDLPTDQTVLPGRSSEREGNAKNCWEDDRKEGQEILGPEAQADEAGCTVKDDECESDAENEQNHDPNVEEFLQQQDTAVIFPEAPEEDQRQGTPEASGHDENGTPDAFSQLLTCPYCDRGYKRFTSLKEHIKYRHEKNEDNFSCSLCSYTFAYRTQLERHMTSHKSGRDQRHVTQSGCNRKFKCTECGKAFKYKHHLKEHLRIHSGEKPYECPNCKKRFSHSGSYSSHISSKKCISLIPVNGRPRTGLKTSQCSSPSLSASPGSPTRPQIRQKIENKPLQEQLSVNQIKTEPVDYEFKPIVVASGINCSTPLQNGVFTGGGPLQATSSPQGMVQAVVLPTVGLVSPISINLSDIQNVLKVAVDGNVIRQVLENNQANLASKEQETINASPIQQGGHSVISAISLPLVDQDGTTKIIINYSLEQPSQLQVVPQNLKKENPVATNSCKSEKLPEDLTVKSEKDKSFEGGVNDSTCLLCDDCPGDINALPELKHYDLKQPTQPPPLPAAEAEKPESSVSSATGDGNLSPSQPPLKNLLSLLKAYYALNAQPSAEELSKIADSVNLPLDVVKKWFEKMQAGQISVQSSEPSSPEPGKVNIPAKNNDQPQSANANEPQDSTVNLQSPLKMTNSPVLPVGSTTNGSRSSTPSPSPLNLSSSRNTQGYLYTAEGAQEEPQVEPLDLSLPKQQGELLERSTITSVYQNSVYSVQEEPLNLSCAKKEPQKDSCVTDSEPVVNVIPPSANPINIAIPTVTAQLPTIVAIADQNSVPCLRALAANKQTILIPQVAYTYSTTVSPAVQEPPLKVIQPNGNQDERQDTSSEGVSNVEDQNDSDSTPPKKKMRKTENGMYACDLCDKIFQKSSSLLRHKYEHTGKRPHECGICKKAFKHKHHLIEHMRLHSGEKPYQCDKCGKRFSHSGSYSQHMNHRYSYCKREAEERDSTEQEEAGPEILSNEHVGARASPSQGDSDERESLTREEDEDSEKEEEEEDKEMEELQEEKECEKPQGDEEEEEEEEEVEEEEVEEAENEGEEAKTEGLMKDDRAESQASSLGQKVGESSEQVSEEKTNEA | – |
| binds | Myc-ZEB1-Δ1 (amino acids 1-340) (domain or fragment, UniProt P37275 1-340) MADGPRCKRRKQANPRRNNVTNYNTVVETNSDSDDEDKLHIVEEESVTDAADCEGVPEDDLPTDQTVLPGRSSEREGNAKNCWEDDRKEGQEILGPEAQADEAGCTVKDDECESDAENEQNHDPNVEEFLQQQDTAVIFPEAPEEDQRQGTPEASGHDENGTPDAFSQLLTCPYCDRGYKRFTSLKEHIKYRHEKNEDNFSCSLCSYTFAYRTQLERHMTSHKSGRDQRHVTQSGCNRKFKCTECGKAFKYKHHLKEHLRIHSGEKPYECPNCKKRFSHSGSYSSHISSKKCISLIPVNGRPRTGLKTSQCSSPSLSASPGSPTRPQIRQKIENKPLQEQ | – |
